According to the antibiotic and cytotoxicity screens of Wong et al. (2023):
Some of the results follow.

Test system: HepG2
Assay: cytotoxicity call (relative viability < 0.9)
Conditions: 10 µM

Structure (SMILES) | cytotoxicity call
C=C[C@H]1CCC=C2C(=O)CCC[C@@H]21 | inactive
Cc1ccc(S(=O)(=O)Nc2ccc3c(c2)C(=O)N([C@H](C)CO)C[C@H](C)[C@@H](CN(C)C(=O)Nc2c(C)noc2C)OCCCC[C@H](C)O3)cc1 | inactive
CC(C)c1nc(N(C)S(C)(=O)=O)nc(-c2ccc(F)cc2)c1C=CC(O)CC(O)CC(=O)[O-].[Ca+2] (stereo not given) | inactive
C[C@H](CO)N1C[C@H](C)[C@@H](CN(C)Cc2ccccc2)OCCCC[C@H](C)Oc2ccc(NC(=O)c3ccccc3)cc2C1=O | inactive
COc1ccc(NC(=O)N[C@@H]2CC[C@H](CCNC(=O)CN3CCOCC3)O[C@H]2CO)cc1 | inactive
C[C@@H]1CN([C@@H](C)CO)C(=O)c2cc(NS(C)(=O)=O)ccc2O[C@@H]1CN(C)S(=O)(=O)c1cn(C)cn1 | inactive
Cc1noc(C)c1NC(=O)N(C)C[C@@H]1OCCCC[C@@H](C)Oc2ccc(NS(=O)(=O)c3ccc(Cl)cc3)cc2C(=O)N([C@H](C)CO)C[C@@H]1C | inactive
COc1ccccc1S(=O)(=O)N1C[C@H](O)COC[C@H]2O[C@H](CC(=O)O)CC[C@@H]21 | inactive
CCNC(=O)[C@@H]1[C@@H](CO)[C@@H]2Cn3c(ccc(-c4ccc(OC)cc4)c3=O)[C@H]1N2S(C)(=O)=O | inactive
O=C(CCCCCC(=O)N/N=C/[C@H](O)[C@H](O)[C@@H](O)[C@@H](O)CO)NO | inactive
O=C1C[C@]2(c3ccc([N+](=O)[O-])cc3)C(=O)N(Cc3ccccc3)c3cc(CO)ccc3[C@H]2N1C1CCCCC1 | inactive

Test system: S. aureus RN4220
Assay: growth inhibition call (relative growth <= 0.2)
Conditions: 50 µM

Structure (SMILES) | growth inhibition call
CCC(=O)N1C[C@]2(CN(C2)C(=O)CN2CCOCC2)c2c([nH]c3cc(ccc23)OC)[C@H]1CO | inactive
COc1ccc(NC(=O)N(C)C[C@@H]2OCc3ccccc3-c3c(n(C)c4ccccc34)C(=O)N([C@H](C)CO)C[C@H]2C)c(OC)c1 | inactive
COc1ccc(S(=O)(=O)N(C)C[C@H]2Oc3ccc(NC(=O)Nc4c(C)noc4C)cc3CC(=O)N([C@@H](C)CO)C[C@H]2C)cc1 | inactive
NCc1cccc(-c2nccs2)c1 | inactive
C[C@@H]1CN([C@@H](C)CO)C(=O)c2cc(C#Cc3ccccc3)cnc2O[C@H]1CN(C)S(=O)(=O)c1ccccc1F | inactive
Cc1noc(C)c1NC(=O)Nc1cccc2c1O[C@@H](CN(C)C(=O)NC(C)C)[C@@H](C)CN([C@H](C)CO)C2=O | inactive
COc1cccc(S(=O)(=O)N[C@H]2CC[C@@H](CC(=O)NC3CCC3)O[C@H]2CO)c1 | inactive
C[C@H](CO)N1C[C@H](C)[C@H](CN(C)S(=O)(=O)c2ccc(Oc3ccccc3)cc2)OCc2cnnn2CCCC1=O | inactive
C[C@@H]1CCCCO[C@H](CN(C)C(=O)CCC(F)(F)F)[C@@H](C)CN([C@@H](C)CO)C(=O)c2cc(NC(=O)C3CCCCC3)ccc2O1 | inactive
COc1ccc(NC(=O)Nc2ccc3c(c2)C(=O)N([C@@H](C)CO)C[C@@H](C)[C@H](CN(C)Cc2ccc(C(F)(F)F)cc2)O3)cc1 | inactive
C[C@H](CO)N1C[C@H](C)[C@@H](CN(C)S(C)(=O)=O)Oc2ccc(NC(=O)CCCCCC(=O)Nc3ccccc3N)cc2C1=O | inactive
Cc1noc(C)c1NC(=O)N(C)C[C@@H]1Oc2ncc(C#CC(C)(C)O)cc2C(=O)N([C@H](C)CO)C[C@@H]1C | inactive
CC(C)NC(=O)Nc1ccc2c(c1)CC(=O)N([C@H](C)CO)C[C@@H](C)[C@@H](CN(C)C(=O)NC1CCCCC1)O2 | inactive
Cc1ccc(S(=O)(=O)N[C@H]2C=C[C@@H](CC(=O)NCCN3CCCCC3)O[C@@H]2CO)cc1 | inactive
Cc1ccc(S(=O)(=O)Nc2ccc3c(c2)C(=O)N([C@H](C)CO)C[C@@H](C)[C@@H](CN(C)Cc2ccncc2)OCCCC[C@H](C)O3)cc1 | inactive
C[C@@H]1CN([C@H](C)CO)C(=O)c2cc(NC(=O)Cn3cnnn3)ccc2O[C@@H]1CN(C)Cc1ccc2c(c1)OCO2 | inactive
CCCNC(=O)N1C[C@H](O)COC[C@@H]2O[C@@H](CC(=O)NCCCN3CCOCC3)CC[C@H]21 | inactive
COCC(=O)Nc1ccc2c(c1)[C@@H]1C[C@H](CC(=O)N3CCOCC3)O[C@H](CO)[C@@H]1O2 | inactive
NC(=O)[C@H]1CCN(c2ncnc(N)c2F)C[C@@H]1N1CCC[C@@H](Nc2cc(Cl)cc(C(F)(F)F)c2)C1=O | inactive
